Measured values from the supplement of paper PMC8728848.
Some of the results follow.

Legend:
Assay in all cases: glycan array binding signal (z-score within array); higher = stronger binding
Conditions in all cases: glycan notation: IUPAC condensed, linker removed
[1] = target: GlcNAc(b1-3)Gal(b1-4)GlcNAc(b1-2)[GlcNAc(b1-3)Gal(b1-4)GlcNAc(b1-6)]Man(a1-6)[GlcNAc(b1-3)Gal(b1-4)GlcNAc(b1-2)Man(a1-3)]Man(b1-4)GlcNAc(b1-4)GlcNAc
How it was run: (§1)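 The Consortium for Functional Glycomics database supplied 3228 glycan arrays, of which those lacking an available protein sequence were dropped. The binding signal, a within-array Z-score, was averaged across arrays of the same protein sequence and across linkers. Negative scores can be read as non-binding.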

[2] = target: GlcNAc(b1-3)Gal(b1-4)GlcNAc(b1-3)Gal(b1-4)GlcNAc
How it was run: as §1

[3] = target: GlcNAc(b1-3)Gal(b1-4)GlcNAc(b1-3)Gal(b1-4)GlcNAc(b1-2)Man(a1-3)[GlcNAc(b1-3)Gal(b1-4)GlcNAc(b1-3)Gal(b1-4)GlcNAc(b1-2)Man(a1-6)]Man(b1-4)GlcNAc(b1-4)GlcNAc
How it was run: as §1

[4] = target: GlcNAc(b1-3)Gal(b1-4)GlcNAc(b1-3)Gal(b1-4)GlcNAc(b1-2)Man(a1-3)[GlcNAc(b1-3)Gal(b1-4)GlcNAc(b1-3)Gal(b1-4)GlcNAc(b1-2)Man(a1-6)]Man(b1-4)GlcNAc(b1-4)[Fuc(a1-6)]GlcNAc
How it was run: as §1

[5] = target: GlcNAc(b1-3)Gal(b1-4)GlcNAc(b1-3)Gal(b1-4)GlcNAc(b1-2)[GlcNAc(b1-3)Gal(b1-4)GlcNAc(b1-3)Gal(b1-4)GlcNAc(b1-6)]Man(a1-6)[GlcNAc(b1-3)Gal(b1-4)GlcNAc(b1-3)Gal(b1-4)GlcNAc(b1-2)Man(a1-3)]Man(b1-4)GlcNAc(b1-4)[Fuc(a1-6)]GlcNAc
How it was run: as §1

[6] = target: GlcNAc(b1-3)Gal(b1-4)GlcNAc(b1-3)Gal(b1-4)GlcNAc(b1-3)Gal(b1-4)GlcNAc(b1-2)Man(a1-3)[GlcNAc(b1-3)Gal(b1-4)GlcNAc(b1-3)Gal(b1-4)GlcNAc(b1-3)Gal(b1-4)GlcNAc(b1-2)Man(a1-6)]Man(b1-4)GlcNAc(b1-4)GlcNAc
How it was run: as §1

[7] = target: GlcNAc(b1-3)Gal(b1-4)GlcNAc(b1-3)Gal(b1-4)GlcNAc(b1-3)Gal(b1-4)GlcNAc(b1-2)Man(a1-3)[GlcNAc(b1-3)Gal(b1-4)GlcNAc(b1-3)Gal(b1-4)GlcNAc(b1-3)Gal(b1-4)GlcNAc(b1-2)Man(a1-6)]Man(b1-4)GlcNAc(b1-4)[Fuc(a1-6)]GlcNAc
How it was run: as §1

[8] = target: GlcNAc(b1-3)Gal(b1-4)GlcNAc(b1-3)Gal(b1-4)GlcNAc(b1-3)Gal(b1-4)GlcNAc(b1-2)[GlcNAc(b1-3)Gal(b1-4)GlcNAc(b1-3)Gal(b1-4)GlcNAc(b1-3)Gal(b1-4)GlcNAc(b1-6)]Man(a1-6)[GlcNAc(b1-3)Gal(b1-4)GlcNAc(b1-3)Gal(b1-4)GlcNAc(b1-3)Gal(b1-4)GlcNAc(b1-2)Man(a1-3)]Man(b1-4)GlcNAc(b1-4)[Fuc(a1-6)]GlcNAc
How it was run: as §1

[9] = target: GlcNAc(b1-3)Gal(b1-4)GlcNAc(b1-3)Gal(b1-4)GlcNAc(b1-3)Gal(b1-4)GlcNAc(b1-3)Gal(b1-4)GlcNAc(b1-2)Man(a1-3)[GlcNAc(b1-3)Gal(b1-4)GlcNAc(b1-3)Gal(b1-4)GlcNAc(b1-3)Gal(b1-4)GlcNAc(b1-3)Gal(b1-4)GlcNAc(b1-2)Man(a1-6)]Man(b1-4)GlcNAc(b1-4)GlcNAc
How it was run: as §1

[10] = target: GlcNAc(b1-3)Gal(b1-4)GlcNAc(b1-3)Gal(b1-4)GlcNAc(b1-3)Gal(b1-4)GlcNAc(b1-3)Gal(b1-4)GlcNAc(b1-2)Man(a1-3)[GlcNAc(b1-3)Gal(b1-4)GlcNAc(b1-3)Gal(b1-4)GlcNAc(b1-3)Gal(b1-4)GlcNAc(b1-3)Gal(b1-4)GlcNAc(b1-2)Man(a1-6)]Man(b1-4)GlcNAc(b1-4)[Fuc(a1-6)]GlcNAc
How it was run: as §1

[11] = target: GlcNAc(b1-3)Gal(b1-4)GlcNAc(b1-3)Gal(b1-4)GlcNAc(b1-3)Gal(b1-4)GlcNAc(b1-3)Gal(b1-4)GlcNAc(b1-2)[GlcNAc(b1-3)Gal(b1-4)GlcNAc(b1-3)Gal(b1-4)GlcNAc(b1-3)Gal(b1-4)GlcNAc(b1-3)Gal(b1-4)GlcNAc(b1-6)]Man(a1-6)[GlcNAc(b1-3)Gal(b1-4)GlcNAc(b1-3)Gal(b1-4)GlcNAc(b1-3)Gal(b1-4)GlcNAc(b1-3)Gal(b1-4)GlcNAc(b1-2)Man(a1-3)]Man(b1-4)GlcNAc(b1-4)[Fuc(a1-6)]GlcNAc
How it was run: as §1

[12] = target: GlcNAc(b1-3)Gal(b1-4)GlcNAc(b1-3)Gal(b1-4)GlcNAc(b1-3)GalNAc
How it was run: as §1

[13] = target: GlcNAc(b1-3)Gal(b1-4)GlcNAc(b1-3)GalNAc
How it was run: as §1

[14] = target: GlcNAc(b1-3)Gal(b1-4)GlcNAc(b1-3)[GlcNAc(b1-3)Gal(b1-4)GlcNAc(b1-3)]GalNAc
How it was run: as §1

[15] = target: GlcNAc(b1-3)Gal(b1-4)GlcNAc(b1-6)[Gal(b1-3)]GalNAc
How it was run: as §1

[16] = target: GlcNAc(b1-3)Gal(b1-4)GlcNAc(b1-6)[GlcNAc(b1-3)Gal(b1-3)]GalNAc
How it was run: as §1

[17] = target: GlcNAc(b1-3)Gal(b1-4)GlcNAc(b1-6)[GlcNAc(b1-3)]Gal(b1-4)GlcNAc
How it was run: as §1

GlcNAc(b1-3)GalNAc = target: GlcNAc(b1-3)GalNAc
How it was run: as §1

GlcNAc(b1-3)Man = target: GlcNAc(b1-3)Man
How it was run: as §1

[18] = target: GlcNAc(b1-3)[GlcNAc(b1-4)][GlcNAc(b1-6)]GlcNAc
How it was run: as §1

[19] = target: GlcNAc(b1-3)[GlcNAc(b1-6)]Gal(b1-4)GlcNAc
How it was run: as §1

[20] = target: GlcNAc(b1-3)[GlcNAc(b1-6)]GalNAc
How it was run: as §1

[21] = target: GlcNAc(b1-4)Gal(b1-4)GlcNAc
How it was run: as §1

B1: Banana lectin (Musa acuminata) (protein)
chain: MNGAIKVGAWGGNGGSAFDMGPAYRIISVKIFSGDVVDGVDVTFTYYGKTETRHYGGSGGTPHEIVLQEGEYLVGMAGEVANYHGAVVLGKLGFSTNKKAYGPFGNTGGTPFSLPIAAGKISGFFGRGGKFLDAIGVYLEPLEHHHHHH
Question: Which results are given for B1?
Answer: glycan array binding signal (z-score) [1]: -0.124; glycan array binding signal (z-score) [2]: -0.184; glycan array binding signal (z-score) [3]: -0.156; glycan array binding signal (z-score) [4]: -0.03; glycan array binding signal (z-score) [5]: -0.146; glycan array binding signal (z-score) [6]: -0.139; glycan array binding signal (z-score) [7]: -0.122; glycan array binding signal (z-score) [8]: -0.157; glycan array binding signal (z-score) [9]: -0.165; glycan array binding signal (z-score) [10]: -0.145; glycan array binding signal (z-score) [11]: -0.113; glycan array binding signal (z-score) [12]: -0.184; glycan array binding signal (z-score) [13]: -0.235; glycan array binding signal (z-score) [14]: -0.214; glycan array binding signal (z-score) [15]: -0.176; glycan array binding signal (z-score) [16]: -0.186; glycan array binding signal (z-score) [17]: -0.208; glycan array binding signal (z-score) (GlcNAc(b1-3)GalNAc): -0.2; glycan array binding signal (z-score) (GlcNAc(b1-3)Man): -0.24; glycan array binding signal (z-score) [18]: -0.209; glycan array binding signal (z-score) [19]: -0.181; glycan array binding signal (z-score) [20]: -0.212; glycan array binding signal (z-score) [21]: -0.202
